Reference: the supplement of paper PMC3334620
The full ranking holds about 33,000 sequences; the median of “E-score (-0.5 to 0.5)” is about -0.012, and the highest 2% start at about 0.27. Some of the results follow.

The sequences below were run against T1, Vhr1 (UniProt P40522) (assay: PBM E-score (8-mer binding enrichment) (E-score (-0.5 to 0.5)); higher = stronger / more preferred TF binding; most listed sequences are background and not binding sites). Conditions: protein concentration: 200 nM; construct: GST-full length.
T1 sequence: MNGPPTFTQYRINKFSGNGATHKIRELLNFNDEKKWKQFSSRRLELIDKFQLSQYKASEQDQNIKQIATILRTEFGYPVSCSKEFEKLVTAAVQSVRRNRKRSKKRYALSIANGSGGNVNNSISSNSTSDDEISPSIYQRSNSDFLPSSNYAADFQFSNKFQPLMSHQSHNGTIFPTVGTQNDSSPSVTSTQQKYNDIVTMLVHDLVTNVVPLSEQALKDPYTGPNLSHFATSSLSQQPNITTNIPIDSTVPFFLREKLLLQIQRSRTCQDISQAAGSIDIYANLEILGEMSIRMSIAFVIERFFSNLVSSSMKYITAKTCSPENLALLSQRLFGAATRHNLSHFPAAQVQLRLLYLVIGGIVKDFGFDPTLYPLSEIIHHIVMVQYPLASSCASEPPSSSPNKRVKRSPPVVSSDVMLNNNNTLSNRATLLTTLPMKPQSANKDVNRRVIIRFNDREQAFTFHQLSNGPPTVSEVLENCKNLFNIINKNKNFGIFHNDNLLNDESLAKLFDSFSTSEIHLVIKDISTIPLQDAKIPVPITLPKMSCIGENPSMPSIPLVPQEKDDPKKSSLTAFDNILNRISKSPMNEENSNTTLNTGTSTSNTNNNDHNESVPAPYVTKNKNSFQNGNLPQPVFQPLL
Description: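 Universal 'all 10-mer' protein binding microarrays (Agilent AMADID 015681) probed with GST-tagged S. cerevisiae TFs (full-length or DBD) made by in vitro transcription/translation (PURExpress), about 100-200 nM. Bound TF was detected with fluorescent anti-GST. Each ungapped 8-mer (which stands for itself and its reverse complement) is scored by the PBM enrichment score (E-score), a modified Wilcoxon-Mann-Whitney statistic from -0.5 to +0.5, computed with the Universal PBM Analysis Suite. Scale: above 0.35 generally sequence-specific binding.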
GCACCTTA was tested, and the “PBM E-score” value was -0.146. CAGGATTC was tested, and the “PBM E-score” value was 0.0395. GGCATATA was tested, and the “PBM E-score” value was 0.0179. With ACCGCTGA the “PBM E-score” value was 0.0809. In the case of AATAAACA, the “PBM E-score” value was 0.169. AGGTGGGA was tested, and the “PBM E-score” value was -0.107. In the case of GATCATGC, the “PBM E-score” value was 0.0952. With CTAGGGTA the “PBM E-score” value was 0.0793. ACCTCGAC was tested, and the “PBM E-score” value was -0.00505. With GTTCCAAA the “PBM E-score” value was -0.0516. For AATAGCAG, the “PBM E-score” value was -0.142. For AATCGGTG, the “PBM E-score” value was 0.0974. For ATTCTATC, the “PBM E-score” value was -0.154. AGGACACC was tested, and the “PBM E-score” value was 0.0945. In the case of TAAAAACA, the “PBM E-score” value was -0.119. For GCACAGCC, the “PBM E-score” value was 0.106. ACCCGATG was tested, and the “PBM E-score” value was 0.137. For GCCGACAA, the “PBM E-score” value was -0.01. For ATCTTTGA, the “PBM E-score” value was -0.148. CTTCAGCA was tested, and the “PBM E-score” value was -0.0299. GTCTTGAA was tested, and the “PBM E-score” value was -0.106. With AAGACTAG the “PBM E-score” value was -0.209. AAGCCCGT was tested, and the “PBM E-score” value was -0.15. For AATGGGAG, the “PBM E-score” value was 0.199. With ACGTTGTG the “PBM E-score” value was -0.0435. For CGGCGACA, the “PBM E-score” value was 0.037. With GAGAAATC the “PBM E-score” value was -0.0477. In the case of ACGTCTCC, the “PBM E-score” value was 0.0523. For GACTCCGA, the “PBM E-score” value was 0.428. For CCAAACGC, the “PBM E-score” value was 0.11. In the case of TGGGTAAA, the “PBM E-score” value was -0.00311. In the case of CGTCACGC, the “PBM E-score” value was -0.208. AAAACAAA was tested, and the “PBM E-score” value was -0.256. GCATTTAC was tested, and the “PBM E-score” value was -0.0932. AATAGTTG was tested, and the “PBM E-score” value was 0.0903. CCCGATCC was tested, and the “PBM E-score” value was -0.0305. For CAGAGGTC, the “PBM E-score” value was -0.0609. For GAGGGCGA, the “PBM E-score” value was -0.187. For CTGATTCC, the “PBM E-score” value was 0.261. In the case of AAGCACGA, the “PBM E-score” value was 0.204. CACGCCAC was tested, and the “PBM E-score” value was 0.0665. In the case of CGGATTCC, the “PBM E-score” value was 0.131. With AGGTAACC the “PBM E-score” value was 0.0511. For ACACCAAA, the “PBM E-score” value was -0.012. In the case of GCTGGAAC, the “PBM E-score” value was -0.0431. GCACGTGC was tested, and the “PBM E-score” value was -0.0186. For AAGGCAAG, the “PBM E-score” value was -0.288. AGGAAGTC was tested, and the “PBM E-score” value was -0.0409. With AAGTCAGT the “PBM E-score” value was 0.203. AGTAATGA was tested, and the “PBM E-score” value was 0.172. For CGCGCCTC, the “PBM E-score” value was -0.0553. In the case of GCCCGACC, the “PBM E-score” value was 0.102. AGTAGATA was tested, and the “PBM E-score” value was 0.153. With CGAGGAGA the “PBM E-score” value was -0.22. ACAGCGCG was tested, and the “PBM E-score” value was -0.0748. ATCTGTGC was tested, and the “PBM E-score” value was 0.0213. AGCCCACC was tested, and the “PBM E-score” value was -0.0218. GGGAAAAA was tested, and the “PBM E-score” value was -0.119. ACATTGAT was tested, and the “PBM E-score” value was 0.0583. With AGTTGCCC the “PBM E-score” value was -0.00534. With CTTAAGAC the “PBM E-score” value was -0.197. With CCGCGTAA the “PBM E-score” value was -0.179. ATGCGCTA was tested, and the “PBM E-score” value was -0.0419. With TAGTCAAA the “PBM E-score” value was 0.117. In the case of CATTGAGC, the “PBM E-score” value was -0.0604. For CGATCTTA, the “PBM E-score” value was -0.228. In the case of ACGGTCCT, the “PBM E-score” value was -0.281. For CGAAGAGC, the “PBM E-score” value was -0.0701. For TTACGGAA, the “PBM E-score” value was -0.0717. For GTTAGTCA, the “PBM E-score” value was 0.43. In the case of CACGCAAG, the “PBM E-score” value was 0.0733. ACTGCACC was tested, and the “PBM E-score” value was 0.108. In the case of CGGGGACA, the “PBM E-score” value was -0.0869. For ATGATGGG, the “PBM E-score” value was 0.0454. With AGTGCCGG the “PBM E-score” value was -0.00074. AACCGTGT was tested, and the “PBM E-score” value was 0.172. In the case of ACGAGACG, the “PBM E-score” value was -0.0734. In the case of GTTTGCCA, the “PBM E-score” value was -0.119. With AAACCCAT the “PBM E-score” value was 0.182. For CACTAAGC, the “PBM E-score” value was 0.0344. For AGCTTGAT, the “PBM E-score” value was 0.0462. With ATAGCAAG the “PBM E-score” value was 0.161. For GCGTCAAC, the “PBM E-score” value was -0.0143. AAAATCGA was tested, and the “PBM E-score” value was -0.0133. For GCGTCTGA, the “PBM E-score” value was -0.189. With AAAATCCG the “PBM E-score” value was -0.0592. With ATACTATA the “PBM E-score” value was 0.189. With AACGATAT the “PBM E-score” value was 0.202. CGTAAAAG was tested, and the “PBM E-score” value was -0.0723. For CGATGCGC, the “PBM E-score” value was 0.0647. With CAACTCAA the “PBM E-score” value was 0.0938. In the case of CTGAGGCA, the “PBM E-score” value was -0.0575. CGCATGTC was tested, and the “PBM E-score” value was -0.0108. GATACATA was tested, and the “PBM E-score” value was 0.332. With CACGAGAG the “PBM E-score” value was 0.02. In the case of AATGGGAT, the “PBM E-score” value was -0.262. With GACCTGAA the “PBM E-score” value was -0.0627. For CTAATCTC, the “PBM E-score” value was 0.0261. In the case of TCAGCTAA, the “PBM E-score” value was -0.16. In the case of ACACCAGA, the “PBM E-score” value was 0.218. In the case of AAACGTTA, the “PBM E-score” value was -0.052. For CCAAGGGC, the “PBM E-score” value was -0.134. For CGGAACCG, the “PBM E-score” value was 0.0495. CGTAACCA was tested, and the “PBM E-score” value was -0.12. In the case of CCTTCCCC, the “PBM E-score” value was 0.0876. In the case of AATGGACT, the “PBM E-score” value was -0.0454. CTGACTGA was tested, and the “PBM E-score” value was 0.13. With CGATCTCC the “PBM E-score” value was -0.0821. With TTTAGAAA the “PBM E-score” value was -0.274. CGGTTTAC was tested, and the “PBM E-score” value was -0.111. For AGTCCTGA, the “PBM E-score” value was 0.114. With GCTCTATA the “PBM E-score” value was -0.15. With AGAACAAA the “PBM E-score” value was 0.114. With CGCGCGAG the “PBM E-score” value was 0.167. In the case of CAGCTAGC, the “PBM E-score” value was -0.071. For AAAGTGGG, the “PBM E-score” value was 0.112. With AATTATAT the “PBM E-score” value was 0.0885. With CTCCCACC the “PBM E-score” value was -0.0567. For CGTCAGGC, the “PBM E-score” value was -0.213. For GAGGCCGA, the “PBM E-score” value was -0.0911. For GCGTACGA, the “PBM E-score” value was 0.131. With TAATAGGA the “PBM E-score” value was -0.0104. ACTTTATG was tested, and the “PBM E-score” value was 0.149. For CGTCTAGA, the “PBM E-score” value was -0.194. With GATGCCAA the “PBM E-score” value was -0.101. With CGTGCTCA the “PBM E-score” value was 0.0243. For CCACGACG, the “PBM E-score” value was 0.0688. With CGGCCGCC the “PBM E-score” value was -0.0207. In the case of AATTGTGC, the “PBM E-score” value was 0.00058. In the case of CCTATCGA, the “PBM E-score” value was 0.0031. In the case of CCATTGTC, the “PBM E-score” value was -0.0467. For AAGTGCGG, the “PBM E-score” value was -0.17. For ATTGGGGG, the “PBM E-score” value was -0.23. With AGCCGTAG the “PBM E-score” value was 0.0364. With GCCAGTAA the “PBM E-score” value was -0.141. In the case of ACATGTTC, the “PBM E-score” value was -0.0547. For ACAATAGA, the “PBM E-score” value was 0.0663. CGCACTCA was tested, and the “PBM E-score” value was -0.0217. For CGATAGAG, the “PBM E-score” value was -0.192. ATTCCAAA was tested, and the “PBM E-score” value was -0.0728. TGACCACA was tested, and the “PBM E-score” value was -0.0342. With GGCCGGCA the “PBM E-score” value was -0.0051. In the case of AAACATAG, the “PBM E-score” value was -0.124. ACTTCTAG was tested, and the “PBM E-score” value was -0.283. In the case of CAGCGCCA, the “PBM E-score” value was -0.0392. For CAATTATC, the “PBM E-score” value was 0.113. GTAGCGAA was tested, and the “PBM E-score” value was -0.027. In the case of ATTCGCCG, the “PBM E-score” value was 0.152. With CGCGTAAG the “PBM E-score” value was -0.0896. For CGACACCA, the “PBM E-score” value was 0.168. With CCGCTCCC the “PBM E-score” value was -0.222. With AGACTCAC the “PBM E-score” value was 0.399. For ATAAGTAT, the “PBM E-score” value was -0.0454. In the case of CTTCGTTA, the “PBM E-score” value was -0.206. For CAGGTTAG, the “PBM E-score” value was 0.0401. With ATATCTAG the “PBM E-score” value was 0.0739. With AGGGTTTA the “PBM E-score” value was -0.0923. TCTTTAAA was tested, and the “PBM E-score” value was -0.151. With ATTGAGGG the “PBM E-score” value was -0.207. With CAGCTCTC the “PBM E-score” value was -0.147. In the case of CAGCAGTA, the “PBM E-score” value was 0.0508. GCATTACC was tested, and the “PBM E-score” value was -0.193. For TAGGACTA, the “PBM E-score” value was 0.066. With AAATCTTG the “PBM E-score” value was -0.0498. AAGACGGG was tested, and the “PBM E-score” value was -0.0364. In the case of GACCGTAA, the “PBM E-score” value was 0.0036. AGACGGAC was tested, and the “PBM E-score” value was 0.014. GCCTAAGC was tested, and the “PBM E-score” value was -0.316. ACTGGAAG was tested, and the “PBM E-score” value was -0.0451. GAACGCCC was tested, and the “PBM E-score” value was -0.278. ACGAGCGC was tested, and the “PBM E-score” value was -0.128. AATTTGGC was tested, and the “PBM E-score” value was -0.281.
